Results reported in patent publication US20260151520A1.

Target: Claudin 18.2 (Claudin 18 splice variant 2) (UniProt P56856)
Assay: cell-based or functional assay

- internalized at 24 hr post-incubation (internalized radioactivity as a percentage of the total cell-associated activity; MiaPaCa2 K18.2 and PATU8988S cells): 35%
B1: Compound F ([177Lu]-Compound C-anti-CLDN 18.2 conjugate of antibody YU574-D03) (antibody, V domains shown)
VH: [about 100 residues not written out]RQVAWLGNWGQGTLVTVSS
VL: DIVMTQSPSSVSASVGDRVTITCRASQGISSWLAWYQQKPGKAPKLLIYAASSLQSGVPSRFSGSGSGTDFTLTISSLQPEDFATYYCQQANSFPLTFGGGTKVDIK
modifications: 177Lu complex of the DOTA chelate-linker Compound C conjugated to the antibody (Compound D, chelate-to-antibody ratio 5.4); residues and chain carrying it not stated
